# According to PMC4336329 (PLoS ONE, 2015):
# Hit rate of the full screen: of about 310,000 compounds, about 2,200 (0.71%) showed an effect of 50% or more. Effects have a minus sign here. This is one part of the list.
# Target: human ether-à-go-go-related gene (hERG) potassium channel (human, UniProt Q12809)
# Assay: primary screen, population patch clamp on CHO cells stably expressing hERG
# Sequence of human ether-à-go-go-related gene (hERG) potassium channel (Q12809 whole entry, looked up): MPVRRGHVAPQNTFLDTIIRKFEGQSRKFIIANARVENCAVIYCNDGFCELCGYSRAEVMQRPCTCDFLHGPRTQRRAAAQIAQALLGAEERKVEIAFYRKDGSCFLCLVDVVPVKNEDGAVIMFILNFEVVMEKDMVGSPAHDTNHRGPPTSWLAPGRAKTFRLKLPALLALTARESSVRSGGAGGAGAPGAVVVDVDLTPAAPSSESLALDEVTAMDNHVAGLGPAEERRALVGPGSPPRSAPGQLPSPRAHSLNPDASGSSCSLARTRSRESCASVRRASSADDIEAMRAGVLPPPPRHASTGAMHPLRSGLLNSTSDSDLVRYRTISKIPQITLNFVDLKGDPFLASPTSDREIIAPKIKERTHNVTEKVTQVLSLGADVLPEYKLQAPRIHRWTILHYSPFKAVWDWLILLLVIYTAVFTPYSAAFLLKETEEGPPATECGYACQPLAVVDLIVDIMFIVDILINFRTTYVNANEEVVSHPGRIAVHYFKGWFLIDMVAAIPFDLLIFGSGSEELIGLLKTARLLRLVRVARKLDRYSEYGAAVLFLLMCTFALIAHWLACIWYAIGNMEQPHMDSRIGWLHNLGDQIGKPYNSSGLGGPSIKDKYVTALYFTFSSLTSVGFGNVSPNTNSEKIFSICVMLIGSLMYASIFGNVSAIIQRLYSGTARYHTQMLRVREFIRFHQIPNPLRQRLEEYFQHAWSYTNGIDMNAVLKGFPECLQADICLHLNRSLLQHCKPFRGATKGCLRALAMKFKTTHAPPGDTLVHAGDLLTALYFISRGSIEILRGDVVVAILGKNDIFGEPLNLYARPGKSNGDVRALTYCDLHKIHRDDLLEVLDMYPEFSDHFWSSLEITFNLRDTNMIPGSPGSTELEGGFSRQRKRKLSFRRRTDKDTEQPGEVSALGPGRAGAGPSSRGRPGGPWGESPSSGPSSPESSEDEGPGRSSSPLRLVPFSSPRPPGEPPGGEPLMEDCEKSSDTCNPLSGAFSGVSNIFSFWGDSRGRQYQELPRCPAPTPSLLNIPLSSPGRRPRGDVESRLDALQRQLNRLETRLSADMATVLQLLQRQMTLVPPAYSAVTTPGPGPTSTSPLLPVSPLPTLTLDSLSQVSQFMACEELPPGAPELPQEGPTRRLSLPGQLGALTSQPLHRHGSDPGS
row,SMILES,"hERG current change (%, negative = inhibition) at 1uM [%]"
1,Cc1ccc(C)c(OCC(=O)NCC(c2ccco2)N2CCCCC2)c1 (stereo not drawn),9.48
2,O=C(COC(=O)c1cccs1)Nc1ccccc1[N+](=O)[O-],-6.77
3,CCCNC(=O)Cn1cnc2sc(C(=O)N3CCCC(C(=O)OCC)C3)c(C)c2c1=O (stereo not drawn),13.6
4,CCSc1nnc2c(n1)OC(C)(C)Nc1ccccc1-2,14.2
5,Cc1ccc(/C=C2\SC(N)=NC2=O)s1,12.7
6,Cc1cc(C)cc(N2C(=O)C3NN=C(C(=O)OCc4ccccc4)C3C2=O)c1 (stereo not drawn),-11.4
7,COCCn1c(=NC(=O)c2ccc(S(=O)(=O)N3CCCc4ccccc43)cc2)sc2cc(S(C)(=O)=O)ccc21,5.7
8,O=C(O)CN1C(=O)/C(=C\c2cc(Br)ccc2OCc2ccc(Cl)cc2)SC1=S,10.4
9,CC(C)(C)c1nnc(NC(=O)CCn2cnc3ccccc3c2=O)s1,10.4
10,O=C(NCc1ccco1)c1c2c(nc3ccccc13)CCC2,3.32
11,Cc1cc2cc(CN(Cc3ccco3)C(=S)NCC3CCCO3)c(=O)[nH]c2cc1C (stereo not drawn),7.73
12,COc1ccc(-n2ccnc2SCC(=O)NC2CCCC2)cc1,6.16
13,Cc1cc(C(=O)OCC(=O)N2CCc3ccccc32)ccc1[N+](=O)[O-],0.444
14,O=C(O)C1=CC[C@@H](c2ccc(Cl)cc2)N(S(=O)(=O)c2ccc(Cl)cc2)[C@H]1c1cccc(Cl)c1,17.4
15,Cl.c1ccc(SCCN2CCN(c3ccccc3)CC2)cc1,13.7
16,COc1ccccc1C(=O)NCC(=O)N1CCN(S(=O)(=O)c2ccc3c(c2)OCCO3)CC1,10.5
17,CS(=O)(=O)N(CC(=O)N1CCN(c2ccccc2)CC1)Cc1ccc(Cl)cc1,-3.3
18,O=C(CSc1nnc(-c2ccccc2Cl)o1)N1CCCCC1,-0.0555
19,OCC1(CCOc2ccccc2)CCN(C2Cc3ccccc3C2)CC1,-11.9
20,CCCCCn1c(=N)n(CC(O)COc2ccccc2OC)c2ccccc21 (stereo not drawn),-82.8
21,Cc1ncc(S(=O)(=O)c2ccccc2)c(-c2ccc(Cl)cc2Cl)n1,15.7
22,COc1cc([N+](=O)[O-])cc2cc(C(=O)N3CCCC3)c(=O)oc12,11
23,CC(C)(C)c1ccc(N2C(=O)Cc3c2nc(N)c(C#N)c3N)cc1,9.36
24,Cc1ccc(S(=O)(=O)N2CCN(C(=O)C3CCCC3)CC2)cc1C,12.4
25,COc1cccc(C(Nc2ccccn2)c2c(NC(=O)c3ccco3)sc(C)c2C)c1 (stereo not drawn),13.4
26,Cc1cnc(NC(=O)Cn2cnc3c2c(=O)n(C)c(=O)n3C)s1,9.38
27,COCCn1c(C)cc(/C=C(\C#N)C(=O)OC(C)C(=O)Nc2ccc(NC(C)=O)cc2)c1C (stereo not drawn),13.7

row,SMILES,"hERG current change (%, negative = inhibition) at 1uM [%]"
1,O=C(c1cc2ccccc2o1)N1CCN(C/C=C/c2ccccc2)CC1,3.82
2,C=CCn1c(SCc2nc3ccccc3nc2C)nnc1-c1ccoc1C,5.43
3,CCc1ccccc1NC(=O)CCc1c(C)nn(-c2ccc(N3CCOCC3)nn2)c1C,3.5
4,COc1ccc(S(=O)(=O)N(CCc2ccccc2)CC(=O)O)cc1Cl,-6.62
5,CC(=O)NS(=O)(=O)c1ccc(NC(=O)c2cc(-c3ccc(C)c(C)c3)nc3ccccc23)cc1,10.9
6,CC(=O)OC(Cn1nc(C)cc1C)c1ccccc1 (stereo not drawn),11.4
7,COc1ccc(OC)c(NC(=O)NC2(C(F)(F)F)Oc3ccccc3O2)c1,2.38
8,CCOC(=O)Cn1c(=O)c2c(nc3n2CCN3Cc2ccccc2)n(C)c1=O,1.59
9,COCCNC(=O)C(=O)NCCN1CCNCC1.O,14.7
10,O=C(O)C(=O)O.O=C(c1cccs1)N1CCN(C2CCCCC2)CC1,-8.61
11,C[n+]1cccc2ccc3c(c21)OC(N)=C(C#N)C3c1ccccc1.[I-] (stereo not drawn),-2.67
12,CC(C)N1CCN(Cc2ccoc2)CC1CCO (stereo not drawn),16.1
13,Cc1nc(-c2ccc(S(=O)(=O)Nc3cc(F)ccc3F)cc2)co1,12.7
14,Cc1nc(-c2nnc(SCC(=O)Nc3cc(Cl)cc(Cl)c3)n2C)cs1,10.6
15,COc1cc(N2CCCC2)c(OC)cc1/C=C(/C#N)c1cccc(F)c1,10.7
16,COC(=O)c1cc(S(=O)(=O)N2CCN(Cc3ccccc3)CC2)c[nH]1,14.1
17,O=C(Nc1ccccc1)C1Cc2ccccc2CN1C(=O)c1ccco1 (stereo not drawn),15.9
18,COc1cc(NC(=O)c2ccc3c(c2)OCCO3)ccc1NC(=O)c1ccccc1Cl,13.7
19,CCCCC(OC(=O)CN1C(=O)COc2ccccc21)C(=O)NC1CCCCC1 (stereo not drawn),1.92
20,COc1cc(/C=N/NC(=O)c2ccc(CSc3nc4ccccc4[nH]3)cc2)ccc1O,15.4
21,O=C(NC(=S)NCc1ccc(-c2nc3ccccc3s2)cc1)c1ccco1,17.1
22,CCOc1ccc(S(=O)(=O)N2CCC(C(=O)NCc3ccco3)CC2)cc1C,8.98
23,O=C(Nc1ccccc1Cl)C1CCCN(c2ncnc3c2nc2n3CCCCC2)C1 (stereo not drawn),10.2
24,COc1ccc(CCNC(=S)N2CCN(S(=O)(=O)c3ccc(C)cc3)CC2)cc1,17.9
25,O=C(CSc1nc2ccc(Cl)cc2[nH]1)NC1CCCc2ccccc21 (stereo not drawn),9.31
26,CC(C)(C)OC(=O)NCc1ccc(CNC(=O)c2[nH]cnc2C(=O)N[C@@H](Cc2ccccc2)C(=O)OC(C)(C)C)cc1,-4.54
27,Fc1cccc(Cc2noc(CN3CCN(c4cnccn4)CC3)n2)c1,6.65
